Experimental data as given in PubChem BioAssay AID1347055 (National Center for Advancing Translational Sciences (NCATS), 2019).
Values joined by “and” are separate entries in the source; they are usually repeats but may differ in a detail not shown here. Identical values can stand only once. Among all 54,000 compounds or so, about 120 (0.22%) were called active. This list was built around the results that the source calls inconclusive (neither active nor inactive); the mix of calls is not that of the screen. The call rests on the fitted dose curve; in most records, active means well fitted inhibition curve with a large enough effect; inconclusive means small, poorly fitted or top-dose-only effect, or effect the other way; inactive means flat fitted curve, though single readings scatter. Potencies beside an inconclusive call are fits to weak or partial responses and may not hold up. Where a structure was tested more than once in an assay, its records may differ in their call.

Each compound was assayed against Fumarate hydratase, mitochondrial (Homo sapiens) (UniProt P07954) (assay: Identification of activators of human fumarate hydratase by quantitative high-throughput screening). Conditions: FH coupled MDH/diaphorase resazurin fluorescence, 15 min; activity change, negative = inhibition: at 79.9 µM (top of the series).
Further: nearly all actives have a fitted effect of over 45% in size.
On the % scale 0 is the no-effect control and ±100 the full control effect; potency means the concentration at half of the fitted maximal effect; tags describe the fitted curve by direction and shape.

Sequence of UniProt P07954 (P07954 whole entry, looked up): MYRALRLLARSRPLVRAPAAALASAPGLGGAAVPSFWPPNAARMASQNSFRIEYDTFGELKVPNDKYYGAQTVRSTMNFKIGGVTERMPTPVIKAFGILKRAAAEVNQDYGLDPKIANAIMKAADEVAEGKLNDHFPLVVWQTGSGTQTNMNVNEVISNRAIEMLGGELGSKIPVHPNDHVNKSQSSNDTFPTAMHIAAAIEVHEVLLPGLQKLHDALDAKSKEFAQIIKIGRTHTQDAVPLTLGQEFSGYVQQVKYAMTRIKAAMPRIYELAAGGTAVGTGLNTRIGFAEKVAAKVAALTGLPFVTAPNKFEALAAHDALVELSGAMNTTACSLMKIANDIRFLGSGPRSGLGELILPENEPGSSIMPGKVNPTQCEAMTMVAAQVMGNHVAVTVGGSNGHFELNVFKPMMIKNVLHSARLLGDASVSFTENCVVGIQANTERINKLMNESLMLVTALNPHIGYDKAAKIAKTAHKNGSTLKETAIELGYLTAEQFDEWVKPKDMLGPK

Q: How did the “activity change, negative = inhibition” value turn out when `CCN(CC)CCOC(=O)c1ccc(NC(=O)Cn2ncc3c([nH]c4ccc(C)cc43)c2=O)cc1` was run?
A: Its value is inactive: 2.59%.

Q: `COc1ccccc1-c1nc2c3c(-c4ccccc4)c(-c4ccccc4)oc3ncn2n1` was tested. Which “activity change, negative = inhibition” value did it give?
A: The value was inactive: -15%.

Q: With `COc1ccccc1CNC(=O)c1ccc2c(c1)N(Cc1cccc(C)c1)C(=O)c1ccccc1S2(=O)=O` as the compound, how does the “activity change, negative = inhibition” value read?
A: The value was inactive: -9.34%.

Q: For `Cc1ccc(-c2nnc(Nc3ccc(O)cc3)c3ccccc23)cc1S(=O)(=O)N1CCN(C)CC1`, which Potency is on record?
A: The Potency was inconclusive: 20 µM [inhibitor, partial curve, poor fit].

Q: With `CCCCOc1ccc(C(=O)Nc2nnc3n2CCS3)cc1` as the compound, how does the Potency read?
A: Its Potency is inconclusive: 28.2 µM [activator, partial curve].

Q: How did the Potency turn out when `COCc1c(-c2ccc(NC(=O)Nc3cc(C(F)(F)F)ccc3F)c(F)c2)c2c(N)ncnn2c1CN1CCOCC1` was run?
A: The Potency was inconclusive: 28.2 µM [inhibitor, single point].

Q: How did the Potency turn out when `CCC(=O)N1CCN(c2ccc(-n3c(=O)ccc4cnc5ccc(-c6cnc7ccccc7c6)cc5c43)cc2C(F)(F)F)CC1` was run?
A: The Potency was inconclusive: 4.9 µM [inhibitor, single point].

Q: How did the Potency turn out when `Cc1ccc(C(=O)CC2(O)C(=O)N(CCc3ccccc3)c3ccc(Cl)cc32)cc1` (stereo unspecified) was run?
A: Its Potency is inconclusive: 20 µM [inhibitor, partial curve].

Q: With `CC(=O)Nc1ccc(C2Sc3ccccc3NC3=C2C(=O)c2ccccc23)cc1` (stereo unspecified) as the compound, how does the Potency read?
A: The Potency was inconclusive: 35.5 µM [inhibitor, single point].

Q: How did the “activity change, negative = inhibition” value turn out when `COc1ccccc1CNC(=O)c1ccc(N2CCCC2)c(NC(=O)NCCC(C)C)c1` was run?
A: The value was inactive: 5.25%.

Q: How did the Potency turn out when `CCOc1cccc2cc(-c3nc4ccc(C(=O)O)cc4[nH]3)c(=O)oc12` was run?
A: Its Potency is inconclusive: 14.1 µM [inhibitor, partial curve].

Q: Which “activity change, negative = inhibition” value does the source give for `CC1C(O)C(O)C2C(C(=O)OCCc3ccc(O)cc3)=COC(O[C@@H]3O[C@H](CO)[C@@H](O)[C@H](O)[C@H]3O)C12` (stereo partly specified) here?
A: The value was inactive: -0.749% [at 53.3 µM].

Q: With `CCOc1ccc(NC(=O)NCCCN2CCN(c3ccc(F)cc3)CC2)cc1` as the compound, how does the “activity change, negative = inhibition” value read?
A: The value was inactive: -2.97%.

Q: With `COc1ccc(Cn2c(CNS(=O)(=O)c3ccc4c(c3)CCCC4)nc3cccnc32)cc1` as the compound, how does the Potency read?
A: The Potency was inconclusive: 39.8 µM [inhibitor, single point].

Q: `O=C(c1cnc(N2CCCCC2)c2ccccc12)N1CCN(c2ccccc2F)CC1` was tested. Which Potency did it give?
A: Its Potency is inconclusive: 39.8 µM [inhibitor, partial curve, poor fit].

Q: How did the Potency turn out when `O=C(c1ccc2c(c1)OCCO2)N(Cc1cccnc1)c1nc2c(F)cccc2s1` was run?
A: The Potency was inconclusive: 44.7 µM [inhibitor, partial curve, poor fit].

Q: Which “activity change, negative = inhibition” value does the source give for `N[C@@H](CC(=O)N1CCn2c(nnc2C(F)(F)F)C1)Cc1[nH]nc2c(F)c(F)ccc12` here?
A: Its value is inactive: 6.44%.

Q: `COc1ccc(-c2nc3ccccc3o2)cc1NC(=O)C(C)Oc1ccc(Cl)cc1Cl` (stereo unspecified) was tested. Which “activity change, negative = inhibition” value did it give?
A: Its value is inactive: -16.2%.

Q: With `COc1ccccc1NC(=O)c1c(NCc2ccc(C)o2)sc2c1CCC(C)C2` (stereo unspecified) as the compound, how does the Potency read?
A: Its Potency is inconclusive: 39.8 µM [inhibitor, single point].

Q: How did the Potency turn out when `COc1cccc(CNCc2c(C(=O)O)n(Cc3ccc(C)cc3)c3cc(C)ccc23)c1OC` was run?
A: Its Potency is inconclusive: 44.7 µM [inhibitor, partial curve, poor fit].

Q: `O=C(Nc1cccc(C(F)(F)F)c1)Nc1cc(S(=O)(=O)NC2CC2)ccc1-c1ccsc1` was tested. Which Potency did it give?
A: Its Potency is active: 19.3 µM.

Q: How did the Potency turn out when `CCCc1nn2c(=O)cc(COC(=O)c3ccc4c(c3)OCO4)nc2s1` was run?
A: The Potency was inconclusive: 50.1 µM [activator, single point].

Q: For `CCCN(CCC)C(=O)C1CCN(c2cc(C)nc3c(-c4ccc(Cl)cc4)c(C)nn23)CC1`, which Potency is on record?
A: Its Potency is inconclusive: 35.5 µM [inhibitor, partial curve, poor fit].

Q: How did the Potency turn out when `O=C(NCCO)c1ccc(-c2nnc(Nc3ccc(OC(F)(F)Cl)cc3)c3ccccc23)cc1` was run?
A: The Potency was inconclusive: 15.8 µM [inhibitor, partial curve].

Q: `Cc1ccc2onc(CNC(=O)N3CCN(c4cc(Cl)ccc4C)CC3)c2c1` was tested. Which Potency did it give?
A: The Potency was inconclusive: 39.8 µM [inhibitor, partial curve, poor fit].

Q: Which Potency does the source give for `Cc1ccc(CCNC(=O)c2sc3nc4n(c(=O)c3c2C)CCCC4)cc1` here?
A: The Potency was inconclusive: 35.5 µM [inhibitor, partial curve, poor fit].

Q: Which “activity change, negative = inhibition” value does the source give for `CC1C=CC2CCCCC2C1CCC1CC(O)CC(=O)O1` (stereo unspecified) here?
A: Its value is inactive: 0.564%.

Q: Which Potency does the source give for `CC[N+](CC)(CC)CCOc1ccc(/C=C/c2ccccc2)cc1` here?
A: The Potency was “inactive and inconclusive: 39.8 µM [inhibitor, single point]”.

Q: For `CC(C)CCC1(O)C(=O)C(C)(C)C(O[C@@H]2O[C@H](CO)[C@@H](O)[C@H](O)[C@H]2O)C(C)(C)C1O` (stereo partly specified), which “activity change, negative = inhibition” value is on record?
A: The value was inactive: -2.87% [at 53.3 µM].

Q: Which Potency does the source give for `Cc1ccc(-c2nc(Cn3c(SCc4ccc(F)cc4)nc4cccnc43)c(C)o2)cc1` here?
A: The Potency was inconclusive: 25.1 µM [inhibitor, single point].

Q: For `CCc1cccc(N2C(=O)CSC23C(=O)N(Cc2ccccc2F)c2ccccc23)c1` (stereo unspecified), which Potency is on record?
A: The Potency was inconclusive: 28.2 µM [inhibitor, partial curve].

Q: `O=C(NCc1cccc(Cl)c1)C1CCN(c2nn3cc(-c4ccc(F)cc4)nc3s2)CC1` was tested. Which “activity change, negative = inhibition” value did it give?
A: Its value is inactive: -0.0618%.

Q: Which Potency does the source give for `Cc1ccc2c(c1)-c1c(cnn1CC(=O)N1CCN(c3cccc(C(F)(F)F)c3)CC1)CO2` here?
A: Its Potency is inconclusive: 31.6 µM [inhibitor, partial curve, poor fit].

Q: For `COc1cccc(NC(=O)c2ccc3c(=O)n4nc(Nc5ccccc5OC)sc4nc3c2)c1`, which “activity change, negative = inhibition” value is on record?
A: Its value is inactive: -9.94%.

Q: For `COc1ccc(-n2c(SCC(=O)NCc3ccccc3)nc3ccsc3c2=O)cc1`, which “activity change, negative = inhibition” value is on record?
A: The value was inactive: 0.0952%.

Q: `COc1ccc(NC(=O)c2nn(C)c3c2CSc2ccc(C)cc2-3)cc1OC` was tested. Which Potency did it give?
A: Its Potency is inconclusive: 28.2 µM [inhibitor, single point].

Q: With `O=C(Cn1cc(SCc2ccc(Cl)cc2)c2ccccc21)N1CCCC1` as the compound, how does the Potency read?
A: The Potency was inconclusive: 31.6 µM [inhibitor, partial curve, poor fit].

Q: For `O=C(c1ccc(F)cc1)N1CCN(CCc2ccncc2)CC1`, which “activity change, negative = inhibition” value is on record?
A: Its value is inactive: -14.5%.

Q: How did the “activity change, negative = inhibition” value turn out when `CCOc1ccc(NC(=O)c2c(NC(=O)c3ccncc3)sc3c2CCC(C(C)(C)C)C3)cc1` (stereo unspecified) was run?
A: The value was inactive: -33.3%.

Q: How did the Potency turn out when `Cc1ccccc1Nc1c(-c2ccc(O)cc2)nc2c(C)cccn12` was run?
A: Its Potency is inconclusive: 25.1 µM [inhibitor, partial curve, poor fit].

Q: For `COCCCNC(=O)C1CCN(C(=O)c2ccc(-n3ccc4ccccc43)s2)CC1`, which Potency is on record?
A: The Potency was inconclusive: 44.7 µM [inhibitor, partial curve, poor fit].

Q: For `CCCN1C(=O)C(Cc2nc3ccccc3c(=O)n2CC)c2cc(Br)ccc21` (stereo unspecified), which Potency is on record?
A: The Potency was inconclusive: 31.6 µM [inhibitor, single point].

Q: For `C=C1CC[C@H]2[C@@H](/C=C(\C)C(=O)[C@@]3(OC(C)=O)C[C@H](C)[C@H](OC(C)=O)[C@@H]3[C@H]1OC(C)=O)C2(C)C`, which “activity change, negative = inhibition” value is on record?
A: Its value is inactive: -0.807% [at 53.3 µM].

Q: With `Cc1oc(-c2cccc(Br)c2)nc1Cn1c(SCc2cccc(F)c2)nc2cccnc21` as the compound, how does the Potency read?
A: The Potency was inconclusive: 28.2 µM [inhibitor, partial curve].

Q: `CSc1ccccc1N1CCN(CCCCCC(=O)NC2CCCc3ccccc32)CC1` (stereo unspecified) was tested. Which Potency did it give?
A: Its Potency is inconclusive: 28.2 µM [inhibitor, partial curve, poor fit].

Q: Which Potency does the source give for `COc1ccc(Br)cc1CNC(=O)CSc1n[nH]c(-c2ccccc2)n1` here?
A: The Potency was inconclusive: 22.4 µM [inhibitor, partial curve].

Q: How did the Potency turn out when `COc1ccc(NC(=O)CSc2cn(CCNC(=O)c3ccc(OC)cc3)c3ccccc23)cc1` was run?
A: The Potency was inconclusive: 35.5 µM [inhibitor, partial curve, poor fit].

Q: `CCc1ccc(NS(=O)(=O)c2ccc3[nH]c4c(c3c2)CCCCCC4)cc1` was tested. Which Potency did it give?
A: Its Potency is inconclusive: 50.1 µM [inhibitor, single point].

Q: Which Potency does the source give for `Cc1cccc(-n2ncc(C(=O)NCc3ccc4c(c3)OCO4)c2C2CCN(C(=O)OC(C)(C)C)CC2)c1` here?
A: The Potency was inconclusive: 50.1 µM [inhibitor, partial curve, poor fit].

Q: How did the Potency turn out when `COc1cccc(NC(=O)Cn2c(=O)n(Cc3nc(-c4ccccc4)no3)c(=O)c3ccccc32)c1` was run?
A: The Potency was inconclusive: 56.2 µM [inhibitor, partial curve, poor fit].

Q: Which “activity change, negative = inhibition” value does the source give for `CCc1ccccc1NC(=O)CSc1ncc2c(n1)-c1ccccc1N(C)S2(=O)=O` here?
A: Its value is inactive: -12.2%.

Q: For `O=C(NCCC1=CCCCC1)c1ccc2c(c1)ncn2-c1cccc(Cl)c1`, which Potency is on record?
A: The Potency was inconclusive: 39.8 µM [inhibitor, partial curve, poor fit].

Q: `C=CC(=O)N1CCCN(c2cc(NCCC(=O)O)nc(-c3ccccn3)n2)CC1` was tested. Which Potency did it give?
A: Its Potency is inconclusive: 17.8 µM [activator, partial curve].

Q: How did the Potency turn out when `CCOC(=O)c1cccc(NS(=O)(=O)c2cc(Br)cc3c2N(C(=O)C2CC2)CC3)c1` was run?
A: The Potency was inconclusive: 7.94 µM [inhibitor, partial curve, poor fit].

Q: How did the activity change, negative = inhibition turn out when `CCc1cccc(NC(=O)C(c2ccccc2)N2Cc3ccccc3C2=O)c1` (stereo unspecified) was run?
A: The activity change, negative = inhibition was inconclusive: -30.1% [inhibitor].

Q: With `Cc1cc(Nc2cccc(Cl)c2)nc2ccc(NC(=O)Cc3cccc(C(F)(F)F)c3)cc12` as the compound, how does the Potency read?
A: The Potency was inconclusive: 35.5 µM [inhibitor, partial curve, poor fit].

Q: With `Cc1cccc(N2CCN(C(=O)CCCCn3c(=O)[nH]c4ccsc4c3=O)CC2)c1C` as the compound, how does the “activity change, negative = inhibition” value read?
A: The value was inactive: -14%.

Q: Which Potency does the source give for `COc1cc(NC(=O)CSc2ncc(S(=O)(=O)c3ccc(Br)cc3)c(=O)[nH]2)cc(OC)c1` here?
A: Its Potency is inconclusive: 35.5 µM [inhibitor, partial curve].

Q: `COc1cc(CN2CCN(S(=O)(=O)c3ccccc3)CC2)cc(OC)c1O` was tested. Which Potency did it give?
A: Its Potency is inconclusive: 7.94 µM [inhibitor, partial curve, poor fit].

Q: For `O=C(CNS(=O)(=O)c1cccs1)N1CCN(c2cccc(C(F)(F)F)c2)CC1`, which “activity change, negative = inhibition” value is on record?
A: Its value is inactive: -8.73%.

Q: For `COc1ccc(C2C=C(c3ccccc3)Nc3nc(NS(=O)(=O)c4ccc(Cl)cc4)nn32)cc1` (stereo unspecified), which Potency is on record?
A: Its Potency is inconclusive: 50.1 µM [inhibitor, single point].
